Holding throughout (experiment): enrichment score (SH2-bound / input frequency) (ratio); bacterial display of known human phosphotyrosine sites (pTyr-Var adds point mutants) read by sequencing; higher = stronger binding; tyrosines were phosphorylated by kinases first
Conditions in all cases: peptide library: pTyr-Var

In test [1] the target is SHP2 C-SH2 domain E139D.
Test [2] deals with SHP2 C-SH2 domain wild-type.
Test [3] addresses SHP2 N-SH2 domain L43F.
The target in test [4] is SHP2 N-SH2 domain T42A.
Test [5] has as its target SHP2 N-SH2 domain T52S.
For test [6], the target named is SHP2 N-SH2 domain wild-type.

The list shows a part of the results. No stated cut-off is given here; in the data, active = 3.2 or more and inactive = the rest. Most of these values are background signal.
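Further: displayed peptides selected on beads carrying the immobilized SH2 domain, with library peptides lacking any tyrosine serving as negative controls.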

Regarding THPFPYLSLEI [MLH1_Y293_L292P], the enrichment score in test [1] is inactive: 1.55; in test [2], inactive: 1.15; in test [3], active: 3.23; in test [4] it was active: 8.62; in test [5], active: 3.99; in test [6] it was inactive: 1.43.
As to TEQDPYNNIDR [MMUT_Y364_V368D], the enrichment score in test [1] was inactive: 0.6; in test [2] it was inactive: 0.467; in test [3], inactive: 0.551; in test [4], inactive: 0.423; in test [5], inactive: 0.581; in test [6], inactive: 0.511.
EVVGRYSLHNA [MLH1_Y183_V185L]: the enrichment score is inactive: 0.665 in test [1]; inactive: 0.573 in test [2]; inactive: 0.686 in test [3]; inactive: 0.558 in test [4]; inactive: 0.619 in test [5]; inactive: 0.713 in test [6].
Take AEDKPYAELWM [MPI_Y46]: the enrichment score in test [1] was inactive: 1.16; in test [2], inactive: 1.33; in test [3], inactive: 1.23; in test [4], active: 3.75; in test [5] it was inactive: 1.14; in test [6], inactive: 1.02.
For the molecule TTPGPHRSIYF [MPG_Y71_Y71H], the enrichment score in test [1] is inactive: 0.675; in test [2], inactive: 0.673; in test [3] it was inactive: 0.682; in test [4], inactive: 0.525; in test [5], inactive: 0.814; in test [6], inactive: 0.87.
In the case of TTPGPHRSIFF [MPG_Y71_Y71H_YF], the enrichment score is inactive: 0.843 in test [1]; inactive: 0.778 in test [2]; inactive: 0.943 in test [3]; inactive: 0.869 in test [4]; inactive: 0.815 in test [5]; inactive: 0.63 in test [6].
With ADGLEYSRTEL [MMUT_Y287_G291E], the enrichment score in test [1] is inactive: 0.467; in test [2] it was inactive: 0.548; in test [3], inactive: 0.569; in test [4], inactive: 0.464; in test [5] it was inactive: 0.523; in test [6], inactive: 0.633.
Take ADGLEYSRTGL [MMUT_Y287]: the enrichment score was inactive: 0.317 in test [1]; inactive: 0.388 in test [2]; inactive: 0.308 in test [3]; inactive: 0.489 in test [4]; inactive: 0.454 in test [5]; inactive: 0.435 in test [6].
Take WKKEIYEESST [MOCS2_Y170]: the enrichment score is inactive: 0.921 in test [1]; inactive: 0.778 in test [2]; inactive: 0.877 in test [3]; inactive: 0.79 in test [4]; inactive: 1.01 in test [5]; inactive: 0.802 in test [6].
Turning to YLENYYDLKKD [MMP3_Y42], the enrichment score in test [1] is inactive: 1.26; in test [2], inactive: 1.28; in test [3] it was inactive: 1.18; in test [4], inactive: 1.46; in test [5], inactive: 1.31; in test [6] it was inactive: 0.992.
As to KIITDYYVDMK [MPP4_Y566_V562I], the enrichment score was inactive: 1.21 in test [1]; inactive: 1.26 in test [2]; inactive: 1.19 in test [3]; inactive: 1.08 in test [4]; inactive: 1.16 in test [5]; inactive: 1.01 in test [6].
Take KERNQYGGVMV [MMP21_Y347_E349G]: the enrichment score was inactive: 0.707 in test [1]; inactive: 0.611 in test [2]; inactive: 0.602 in test [3]; inactive: 0.544 in test [4]; inactive: 0.567 in test [5]; inactive: 0.619 in test [6].
Turning to PFWKLYESVKK [MKI67_Y241], the enrichment score in test [1] was inactive: 1.72; in test [2], inactive: 1.39; in test [3], inactive: 1.6; in test [4], inactive: 1.51; in test [5] it was inactive: 1.53; in test [6], inactive: 1.83.
Consider KTVQDYLKKFF [MMP8_Y36_E38K_YF], for which the enrichment score was inactive: 0.812 in test [1]; inactive: 0.634 in test [2]; inactive: 0.785 in test [3]; inactive: 0.958 in test [4]; inactive: 0.807 in test [5]; inactive: 0.665 in test [6].
For EVVGRYSVHNA [MLH1_Y183], the enrichment score in test [1] is inactive: 0.738; in test [2], inactive: 0.743; in test [3], inactive: 0.808; in test [4] it was inactive: 0.713; in test [5], inactive: 0.711; in test [6] it was inactive: 0.893.
On to KYLENYYDLEK [MMP3_Y41_K45E], for which the enrichment score is inactive: 1.4 in test [1]; inactive: 1.2 in test [2]; inactive: 1.6 in test [3]; inactive: 0.953 in test [4]; inactive: 1.05 in test [5]; inactive: 1.51 in test [6].
For RDMNAYISPSP [MMAA_Y207_R209S], the enrichment score in test [1] is inactive: 0.608; in test [2] it was inactive: 0.675; in test [3] it was inactive: 0.546; in test [4], inactive: 0.552; in test [5] it was inactive: 0.568; in test [6] it was inactive: 0.548.
With QVMDGYPIPIG [MMP14_Y353_M355I], the enrichment score was inactive: 0.764 in test [1]; inactive: 0.721 in test [2]; inactive: 0.765 in test [3]; inactive: 0.72 in test [4]; inactive: 0.798 in test [5]; inactive: 0.823 in test [6].

The values above are taken from the supplement of paper PMC10369915.
